Laboratory results from PubChem BioAssay AID1346428 (National Center for Advancing Translational Sciences (NCATS), 2018).
Several values for one entry are separate records, joined by “and”; a condition that tells them apart may be missing. Equal entries are not always repeated. Hit rate of the full screen: of about 48,000 compounds, about 1,200 (2.5%) were called active. About 2% were inconclusive and are not listed.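 The calls were made as follows: active = activation of at least 60% and not above a set upper limit (about 1 call in 100 departs from these limits); inconclusive = activation of 40% to 60%, or above that upper limit; inactive = activation under 40%.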 Some of the results follow.

molecular target: Probable G-protein coupled receptor 32 (Homo sapiens) (UniProt O75388); assay: qHTS for Agonists of Human Resolvin D1 Receptor DRV1; conditions: CHO-K1 GPR32 beta-arrestin PathHunter luminescence, 90 min; at 76.9 µM; active compounds read high; zero percent set by DMSO-only wells; also: 0% is about no effect
UniProt O75388, sequence (O75388 whole entry, looked up): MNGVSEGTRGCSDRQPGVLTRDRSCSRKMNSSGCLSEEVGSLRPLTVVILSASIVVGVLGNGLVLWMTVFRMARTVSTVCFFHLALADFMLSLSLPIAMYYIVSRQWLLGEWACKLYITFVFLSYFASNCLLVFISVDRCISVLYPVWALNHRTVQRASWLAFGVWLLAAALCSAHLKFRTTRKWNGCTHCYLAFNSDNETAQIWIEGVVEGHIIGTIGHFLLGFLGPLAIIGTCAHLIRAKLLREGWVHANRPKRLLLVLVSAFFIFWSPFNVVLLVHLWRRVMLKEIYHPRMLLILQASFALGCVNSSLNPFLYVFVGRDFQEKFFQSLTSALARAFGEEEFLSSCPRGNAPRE
Outline: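 Step 1: seed CHO-K1 GPR32 beta-arrestin cells, 2,500/well, overnight at 37 °C. Step 2: add compounds, 90 min at 37 °C. Step 3: detection reagent, 1 h ambient, then luminescence.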

| Compound | activation |
| --- | --- |
| CCc1ccc(-c2nn(CC(=O)Nc3ccccc3)c3c2cnc2ccc(F)cc23)cc1 | inactive: 6.65% |
| CC(=O)NCc1c(I)c(NC(C)=O)c(I)c(C(=O)O)c1I | inactive: 9.27% |
| COc1ccc(N2CCN(C(=O)c3cn(CC(C)C)c(=O)c4c3c3ccccc3n4C)CC2)cc1 | inactive: -28.3% |
| O=C(Cn1c(=O)c2cccn2c2ccccc21)Nc1cc(F)ccc1F | inactive: -21.2% |
| CCOC(=O)c1cc(-c2ccccc2)n(-c2cccc(C(=O)Nc3ccc(OC)cc3)c2)c1C | inactive: -32.7% |
| CCOc1ccc(N(C(=O)Cn2nnc3ccccc32)C(C(=O)NCc2ccccc2)c2ccc(OC)cc2)cc1 (centres undefined) | inactive: -16.4% |
| CC(C)(C)C1CCc2c(sc(NC(=O)Cn3nnc(-c4ccccc4F)n3)c2C#N)C1 (centres undefined) | inactive: 20.4% |
| Cc1onc(-c2ccccc2Cl)c1C(=O)Oc1cc(F)cc(F)c1 | inactive: -39.5% |
| COC(=O)c1ccccc1NC(=O)Cn1c(=O)n(-c2cccc(OC)c2)c(=O)c2c(C)c(C(=O)N(C)C)sc21 | inactive: -6.7% |
| CCC(C(=O)NCCc1ccc(SC)cc1)n1nc(C)c2sc3ccccc3c2c1=O (centres undefined) | inactive: -33.3% |
| CC(=O)N1CCCc2cc(S(=O)(=O)N3CCC(C(=O)NCc4ccc(C)cc4)CC3)ccc21 | inactive: 0.806% |
| COc1ccc(-c2[nH]ncc2C(=O)NCc2ccccc2C)cc1 | inactive: -16% |
| COc1ccc(OCC(=O)OCc2cc(=O)n3nc(C4CCCCC4)sc3n2)cc1 | inactive: -9.26% |
| CC(=O)Nc1cccc(NC(=O)C(=O)NCCc2sc(-c3ccccc3)nc2C)c1 | inactive: 37.1% |
| CCN(CC)CCNC(=O)c1cn(CC)c2ccc(S(=O)(=O)N3CCOCC3)cc2c1=O | inactive: -12.6% |
| Cc1ccc(CCNC(=O)Cn2nc(-c3ccc(C)cc3)ccc2=O)cc1 | inactive: -19.2% |
| OCc1c[nH]c2ccccc12 | inactive: -21.9% |
| Cc1ccc(C)c(NC(=O)CSc2ncc(S(=O)(=O)c3ccc(C)c(Cl)c3)c(=O)[nH]2)c1 | inactive: -5.81% |
| O=C(Cn1ncc2ccc(Cl)cc21)NCc1ccc(F)cc1 | inactive: -19.6% |
| CSc1cccc(Nc2nc3c(S(=O)(=O)c4ccccc4)nnn3c3ccc(Cl)cc23)c1 | inactive: 3.77% |
| O=C(c1ccc2c(c1)N(Cc1ccc(F)cc1)C(=O)c1ccccc1S2=O)N1CCC(Cc2ccccc2)CC1 (centres undefined) | inactive: -6.35% |

| Compound | activation |
| --- | --- |
| COc1ccccc1NC(=O)c1cccc(S(=O)(=O)N2CCCCCC2)c1 | inactive: -31.2% |
| CCc1ccc(CNC(=O)c2ccc(NC(=O)N3CCCCc4ccccc43)cc2)cc1 | inactive: -12.6% |
| COc1ccc(Cn2c(SCc3ccc(C(=O)NC(C)C)cc3)nc3cccnc32)cc1 | inactive: 3.04% |
| Cc1ccc(C(=O)Nc2cccc(C(=O)O)c2)cc1S(=O)(=O)N1CCCC1 | inactive: -2.42% |
| Cc1c(Cl)cccc1NC(=O)Nc1nnc(N2CCCCCC2)s1 | inactive: 3.19% |
| CCn1cc(C(=O)NCCCN2CCCC(C)C2)c(=O)c2cc(S(=O)(=O)N(C)C3CCCCC3)ccc21 (centres undefined) | inactive: -3.87% |
| Cc1cc(C)cc(-n2ccn(CC(=O)Nc3cc(C)ccc3C)c(=O)c2=O)c1 | inactive: -10.5% |
| Cc1ccc(N2CC(NC(=O)c3ccc(S(=O)(=O)N4CCCC4)cc3)CC2=O)cc1C (centres undefined) | inactive: 1.17% |
| COc1ccc(CCNc2nc(-c3ccc(OC)c(OC)c3)cc(C(F)(F)F)n2)cc1OC | inactive: -3.74% |
| Cc1cccc(CS(=O)(=O)Cc2ccc(C(=O)NCCc3ccccc3)o2)c1 | inactive: -9.77% |
| Cc1ccc(-c2cn(-c3cccc(Cl)c3)c(S(=O)(=O)CC(=O)Nc3cccc(C)c3)n2)cc1 | inactive: -26.7% |
| CCOC(=O)c1c(S(=O)(=O)N2CCCC(C(=O)NCc3cccc(OC)c3)C2)c(C)n(C)c1C (centres undefined) | inactive: -5.61% |
| COc1cccc(OC)c1C(=O)Nc1cccc(-c2cn3ccsc3n2)c1 | inactive: -13.3% |
| COc1ccc(-c2nnc(SCC(=O)NC3CCCC3)nc2-c2ccc(OC)c(OC)c2)cc1OC | inactive: -22.3% |
| CCOc1ccc(N2CC(c3nc4ccccc4n3Cc3ccccc3F)CC2=O)cc1 (centres undefined) | inactive: -5.56% |
| O=C(NCc1ccccc1)C1CCN(S(=O)(=O)c2ccc3c(c2)CCCN3C(=O)C2CCC2)CC1 | inactive: -14.6% |
| O=C(CCC1N=C2c3ccccc3N=C(SCc3cccc(F)c3)N2C1=O)NCc1cccs1 (centres undefined) | inactive: -22.4% |
| CCOC(=O)c1scc(-c2ccc(C)cc2)c1S(=O)(=O)N1CCN(c2ccccc2F)CC1 | inactive: -6.94% |
| CCOc1ccc(NC(=O)c2ccc(F)c(S(=O)(=O)N(CC)Cc3ccccc3)c2)cc1 | inactive: -11% |
| Cc1cccc(NC(=O)C(=O)NCC(c2cccnc2)N2CCc3ccccc3C2)c1C (centres undefined) | inactive: -22.2% |
| CCCCCSc1ncnc2c1sc1nc(N3CCOCC3)c3c(c12)CCCC3 | inactive: -4.95% |

| Compound | activation |
| --- | --- |
| Cc1ccc(NC(=O)NCc2cccn2Cc2ccccc2)c(C)c1 | inactive: -14.4% |
| COc1ccc(OC)c(NC(=O)c2cc(S(=O)(=O)NCCc3ccc(Cl)cc3)ccc2F)c1 | inactive: -15% |
| CCC(C)NC(=O)Cn1c(=O)n(-c2ccc(C)c(C)c2)c(=O)c2c3c(sc21)CCCCC3 (centres undefined) | inactive: 7.11% |
| N[C@@H](Cc1c[nH]c2ccccc12)C(=O)O | inactive: -9.77% |
| CCOc1ccc(CCNC(=O)c2sc3ncccc3c2-n2cccc2)cc1OCC | inactive: -18.6% |
| Nc1cc(=O)[nH]c(N)n1 | inactive: -7.55% and inactive: -3.81% |
| COC(=O)c1ccc(-c2nc3cc(NC(C)=O)ccc3o2)cc1 | inactive: -7.12% |
| O=C(OOC(=O)c1ccccc1)c1ccccc1 | inactive: 40.8% |
| CCCCc1nn2c(=O)cc(COC(=O)C3CCCCC3)nc2s1 | inactive: 7.73% |
| Cc1nc2nc(SCC(=O)NC3CCC(C)CC3)nn2c(C)c1Cc1ccccc1 (centres undefined) | inactive: -19.1% |
| CCOc1ccc(OCC)c(NC(=O)c2ccc(-c3ccccc3)s2)c1 | inactive: -6.71% |
| Cc1cccc(N2CCN(C(=O)c3ccc4c(c3)N(Cc3cccc(Cl)c3)C(=O)c3ccccc3S4=O)CC2C)c1 (centres undefined) | inactive: -30.8% |
| CCOc1cccc2sc(N3CCN(C(=O)C4CC4)CC3)nc12 | inactive: -20.9% |
| CCOc1ccc(CNC(=O)c2cc(=O)[nH]c3ccc(S(=O)(=O)N4CCCC4)cc23)cc1 | inactive: -3.65% |
| COc1ccc(C(=O)Nc2nc3c(s2)CCCC3)cc1Cl | inactive: -20.8% |
| COc1ccc(Cl)cc1CNCCSc1nnnn1C | inactive: 21.9% |
| Cn1c(=O)c2c(-c3ccccc3)n3c(c2n(C)c1=O)C(c1ccco1)Nc1ccccc1-3 (centres undefined) | inactive: 8.34% |
| CCOc1cccc(NC(=O)CSc2ncc(-c3ccccc3)[nH]2)c1 | inactive: -14.8% |
| CCCn1cc(S(=O)(=O)c2ccc(CC)cc2)c(=O)c2cc(F)c(N(CC)CC)cc21 | inactive: -7.52% |
| CC(=O)c1ccc(N2CCN(C(=O)CCCCn3c(=O)[nH]c4ccccc4c3=O)CC2)cc1 | inactive: -1.8% |
| CCOc1ccc(NC(=O)c2ccc3c(c2)CCN3S(=O)(=O)c2ccc(Cl)cc2)cc1 | inactive: 0.432% |

| Compound | activation |
| --- | --- |
| Cc1cccc(Cn2c(=O)n(CCC(=O)NCCc3ccc(Cl)cc3)c(=O)c3sccc32)c1 | inactive: -5.51% |
| Cc1ccc(NC(=O)CCC(=O)N2Cc3ccccc3Oc3ncccc32)cc1F | inactive: -10.3% |
| O=C(NCc1ccc(F)cc1)c1ccc2nc(N3CCCCC3)sc2c1 | inactive: -10.5% |
| Fc1cccc(Cl)c1Cn1c(-c2cccs2)nc2ccccc21 | inactive: -22.9% |
| COc1ccc(OC)c(CNC(=O)c2nn(C)c3c2CSc2ccccc2-3)c1 | inactive: -16.9% |
| O=C(NCC(c1ccc2c(c1)OCO2)N1CCOCC1)C(=O)Nc1cccc(Cl)c1 (centres undefined) | inactive: -7.01% |
| Cc1cc(-c2ccc(C)c(S(=O)(=O)NCC3CCN(Cc4ccc(F)cc4)CC3)c2)on1 | inactive: -29.2% |
| O=C(O)c1c(CNCc2cccc(F)c2)c2ccccc2n1Cc1ccccc1 | inactive: -3.47% |
| CC(=O)c1ccc(NC(=O)c2cc(S(=O)(=O)N3CCCCCC3)cn2C)cc1 | inactive: 33.5% |
| COc1ccc(-c2nc3c(c(SCC(=O)Nc4ccccc4F)n2)Cc2cc(C)ccc2O3)cc1 | inactive: -8.56% |
| Cc1ccc(NC(=O)CCCc2nnc3n(C)c(=O)c4sccc4n23)cc1F | inactive: -8.35% |
| CCCNC(=O)c1ccc2c(c1)sc1nc(-c3ccc(C)cc3)cn12 | inactive: -4.25% |
| NC(=O)C1(N2CCCCC2)CCN(C(=O)Nc2ccc(F)cc2)CC1 | inactive: 18.8% |
| CCc1ccccc1NC(=O)CN1C(=O)c2ccccc2Sc2ncccc21 | inactive: -4.39% |
| CC(O)Cn1cnc2c1c(=O)n(C)c(=O)n2C (centres undefined) | inactive: -2.92% |
| CC1CCn2c(nc3cc(C(=O)NCc4ccccc4)ccc32)C1 (centres undefined) | inactive: -6.15% |
| Cc1ccc(C)c(N2CCN(C(=O)C3CCCN(Cc4nc(-c5cccc(Cl)c5)oc4C)C3)CC2)c1 (centres undefined) | inactive: 19.1% |
| O=C(CNC(=O)c1ccccc1)OCc1cc(=O)n2ccsc2n1 | inactive: -14% |
| Cc1[nH]c2ccccc2c1C1(O)C(=O)N(Cc2ccccc2Cl)c2ccccc21 (centres undefined) | active: 105% |
| COc1ccc(NC(=O)Cn2c(=O)n(-c3cccc(C(F)(F)F)c3)c(=O)c3sccc32)cc1 | inactive: 22.8% |
| Cc1ccccc1NC(=O)[C@H](CSCc1ccccc1)N1Cc2ccccc2C1=O | inactive: -24.3% |
